From the supplement of paper PMC4967469

Key:
Experiment in all cases: Viability of human cancer cell lines after 72 h of drug (GDSC screen)
ZM-447439 = compound: COc1cc2c(Nc3ccc(NC(=O)c4ccccc4)cc3)ncnc2cc1OCCCN1CCOCC1 [ZM-447439]; conditions: top dose inferred
Procedure: (§1)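 Human cancer cell lines in 384-well plates, medium with 10% serum, drug for 72 h over a 256-fold dose range (nine 2-fold or five 4-fold steps up to the top dose). Adherent lines were fixed and stained with the nucleic acid dye Syto60, suspension lines read with resazurin; signal relative to control wells, capped at 0 and 100%. One two-parameter sigmoid per drug and line, fitted in a mixed model over all curves with the slope shared within a line.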

AZD6244 = compound: Cn1cnc2c(F)c(Nc3ccc(Br)cc3Cl)c(C(=O)NOCCO)cc21 [AZD6244]; conditions: screen: GDSC drug entry 1062
Procedure: as §1

PD-0332991 = compound: CC(=O)c1c(C)c2cnc(Nc3ccc(N4CCNCC4)cn3)nc2n(C2CCCC2)c1=O [PD-0332991]
Procedure: as §1

Cell Line | AUC (ZM-447439) | IC50 (ZM-447439) [nM] | AUC (AZD6244) | IC50 (AZD6244) [nM] | AUC (PD-0332991) | IC50 (PD-0332991) [nM]
AU565 (breast, adherent, top dose 4 µM) | 0.947 | > 4000 | 0.984 | > 4000 | 0.923 | > 4000
AsPC-1 (pancreas, adherent, top dose 2 µM) | 0.927 | > 2000 | 0.592 | 267 | 0.564 | 210
BALL-1 (B-cell leukaemia, suspension, top dose 4 µM) | 0.997 | > 4000 | 0.997 | > 4000 | 0.959 | > 4000
BB30-HNC (head and neck, adherent, top dose 4 µM) | 0.904 | > 4000 | 0.921 | > 4000 | 0.536 | 313
BB49-HNC (head and neck, adherent, top dose 4 µM) | 0.89 | > 4000 | 0.784 | 2480 | 0.819 | 3610
BC-1 (B-cell lymphoma, suspension, top dose 4 µM) | 0.987 | > 4000 | 0.982 | > 4000 | 0.968 | > 4000
BCPAP (thyroid, adherent, top dose 2 µM) | 0.95 | > 2000 | 0.871 | 1580 | 0.832 | 1120
BE2-M17 (neuroblastoma, adherent, top dose 4 µM) | 0.882 | > 4000 | 0.847 | 3070 | 0.668 | 748
BE-13 (lymphoblastic leukaemia, suspension, top dose 4 µM) | 0.706 | 911 | 0.915 | > 4000 | 0.555 | 349
BFTC-905 (bladder, adherent, top dose 4 µM) | 0.832 | 2070 | 0.843 | 2280 | 0.739 | 1070
BHT-101 (thyroid, adherent, top dose 4 µM) | 0.824 | 2480 | 0.394 | 127 | 0.476 | 215
BHY (head and neck, adherent, top dose 2 µM) | 0.948 | > 2000 | 0.818 | 1130 | 0.808 | 1040
BICR10 (head and neck, adherent, top dose 4 µM) | 0.938 | > 4000 | 0.92 | > 4000 | 0.807 | 2450
BICR22 (head and neck, adherent, top dose 4 µM) | 0.8 | 2270 | 0.966 | > 4000 | 0.754 | 1530
BICR78 (head and neck, adherent, top dose 4 µM) | 0.876 | > 4000 | 0.939 | > 4000 | 0.812 | 2580
BL-41 (Burkitt lymphoma, suspension, top dose 4 µM) | 0.793 | 1370 | 0.994 | > 4000 | 0.887 | 2650
BPH-1 (prostate, adherent, top dose 2 µM) | 0.912 | > 2000 | 0.529 | 151 | 0.956 | > 2000
BT-474 (breast, adherent, top dose 4 µM) | 0.981 | > 4000 | 0.984 | > 4000 | 0.98 | > 4000
BT-483 (breast, adherent, top dose 4 µM) | 0.967 | > 4000 | 0.941 | > 4000 | 0.946 | > 4000
BT-549 (breast, adherent, top dose 4 µM) | 0.943 | > 4000 | 0.968 | > 4000 | 0.979 | > 4000
BV-173 (chronic myeloid leukaemia, suspension, top dose 4 µM) | 0.712 | 912 | 0.949 | > 4000 | 0.576 | 394
Becker (glioma, adherent, top dose 4 µM) | 0.925 | > 4000 | 0.9 | > 4000 | 0.742 | 1360

Cell Line | AUC (ZM-447439) | IC50 (ZM-447439) [nM] | AUC (AZD6244) | IC50 (AZD6244) [nM] | AUC (PD-0332991) | IC50 (PD-0332991) [nM]
BxPC-3 (pancreas, adherent, top dose 4 µM) | 0.921 | > 4000 | 0.857 | 3900 | 0.846 | 3480
C2BBe1 (large intestine, adherent, top dose 2 µM) | 0.959 | > 2000 | 0.561 | 188 | 0.863 | > 2000
C3A (liver, adherent, top dose 4 µM) | 0.959 | > 4000 | 0.953 | > 4000 | 0.953 | > 4000
C32 (melanoma, adherent, top dose 4 µM) | 0.952 | > 4000 | 0.974 | > 4000 | 0.814 | 2370
C-4-I (cervix, adherent, top dose 4 µM) | 0.949 | > 4000 | 0.986 | > 4000 | 0.982 | > 4000
C-33-A (cervix, adherent, top dose 4 µM) | 0.955 | > 4000 | 0.986 | > 4000 | 0.986 | > 4000
CA46 (Burkitt lymphoma, suspension, top dose 4 µM) | 0.985 | > 4000 | 0.979 | > 4000 | 0.985 | > 4000
CADO-ES1 (Ewing sarcoma, suspension, top dose 4 µM) | 0.982 | > 4000 | 0.958 | > 4000 | 0.95 | > 4000
CAL-12T (non-small cell lung carcinoma, adherent, top dose 4 µM) | 0.952 | > 4000 | 0.867 | > 4000 | 0.892 | > 4000
CAL-27 (head and neck, adherent, top dose 4 µM) | 0.927 | > 4000 | 0.985 | > 4000 | 0.827 | 2500
CAL-29 (bladder, adherent, top dose 4 µM) | 0.812 | 2360 | 0.736 | 1250 | 0.626 | 572
CAL-33 (head and neck, adherent, top dose 4 µM) | 0.896 | > 4000 | 0.946 | > 4000 | 0.663 | 710
CAL-39 (cervix, adherent, top dose 4 µM) | 0.926 | > 4000 | 0.546 | 335 | 0.647 | 649
CAL-51 (breast, adherent, top dose 4 µM) | 0.806 | 1720 | 0.983 | > 4000 | 0.778 | 1400
CAL-54 (kidney, adherent, top dose 2 µM) | 0.943 | > 2000 | 0.781 | 959 | 0.843 | 1720
CAL-62 (thyroid, adherent, top dose 4 µM) | 0.903 | > 4000 | 0.737 | 1140 | 0.753 | 1280
CAL-72 (osteosarcoma, adherent, top dose 4 µM) | 0.922 | > 4000 | 0.983 | > 4000 | 0.948 | > 4000
CAL-85-1 (breast, adherent, top dose 4 µM) | 0.933 | > 4000 | 0.807 | 2800 | 0.817 | 3080
CAL-120 (breast, adherent, top dose 4 µM) | 0.841 | > 4000 | 0.903 | > 4000 | 0.868 | > 4000
CAPAN-1 (pancreas, adherent, top dose 4 µM) | 0.98 | > 4000 | 0.981 | > 4000 | 0.916 | > 4000
CAS-1 (glioma, adherent, top dose 4 µM) | 0.957 | > 4000 | 0.978 | > 4000 | 0.95 | > 4000
CCF-STTG1 (glioma, adherent, top dose 4 µM) | 0.931 | > 4000 | 0.988 | > 4000 | 0.844 | 2900

Cell Line | AUC (ZM-447439) | IC50 (ZM-447439) [nM] | AUC (AZD6244) | IC50 (AZD6244) [nM] | AUC (PD-0332991) | IC50 (PD-0332991) [nM]
CCK-81 (large intestine, adherent, top dose 4 µM) | 0.653 | 646 | 0.637 | 583 | 0.796 | 1750
CCRF-CEM (lymphoblastic leukaemia, suspension, top dose 4 µM) | 0.619 | 502 | 0.959 | > 4000 | 0.395 | 136
CESS (acute myeloid leukaemia, suspension, top dose 4 µM) | 0.991 | > 4000 | 0.991 | > 4000 | 0.981 | > 4000
CFPAC-1 (pancreas, adherent, top dose 4 µM) | 0.918 | > 4000 | 0.851 | 3760 | 0.816 | 2630
CGTH-W-1 (thyroid, adherent, top dose 4 µM) | 0.801 | 1940 | 0.978 | > 4000 | 0.627 | 557
CHL-1 (melanoma, adherent, top dose 4 µM) | 0.85 | 2780 | 0.813 | 2010 | 0.866 | 3220
CHP-126 (neuroblastoma, suspension, top dose 4 µM) | 0.939 | > 4000 | 0.987 | > 4000 | 0.761 | 1450
CHP-134 (neuroblastoma, suspension, top dose 4 µM) | 0.748 | 1600 | 0.932 | > 4000 | 0.655 | 760
CHP-212 (neuroblastoma, adherent, top dose 4 µM) | 0.709 | 920 | 0.83 | 2260 | 0.499 | 248
CHSA0108 (chondrosarcoma, adherent, top dose 4 µM) | 0.943 | > 4000 | 0.966 | > 4000 | 0.777 | 1860
CHSA8926 (chondrosarcoma, adherent, top dose 4 µM) | 0.972 | > 4000 | 0.973 | > 4000 | 0.912 | > 4000
CL-11 (large intestine, adherent, top dose 4 µM) | 0.971 | > 4000 | 0.935 | > 4000 | 0.879 | > 4000
CL-34 (large intestine, adherent, top dose 4 µM) | 0.871 | > 4000 | 0.974 | > 4000 | 0.949 | > 4000
CL-40 (large intestine, adherent, top dose 4 µM) | 0.966 | > 4000 | 0.974 | > 4000 | 0.899 | > 4000
CMK (acute myeloid leukaemia, suspension, top dose 4 µM) | 0.968 | > 4000 | 0.983 | > 4000 | 0.952 | > 4000
CML-T1 (chronic myeloid leukaemia, suspension, top dose 4 µM) | 0.896 | 3450 | 0.988 | > 4000 | 0.576 | 389
COLO-205 (large intestine, suspension, top dose 4 µM) | 0.879 | > 4000 | 0.319 | 78.5 | 0.927 | > 4000
COLO-320-HSR (large intestine, suspension, top dose 4 µM) | 0.981 | > 4000 | 0.991 | > 4000 | 0.912 | > 4000
COLO-668 (small cell lung carcinoma, adherent, top dose 4 µM) | 0.941 | > 4000 | 0.951 | > 4000 | 0.989 | > 4000
COLO-678 (large intestine, semi-adherent, top dose 4 µM) | 0.98 | > 4000 | 0.678 | 914 | 0.879 | > 4000

Lines with a small IC50 respond at low doses; fits outside the tested doses are given as limits. AUC, from the same fit, is the share of area under the viability curve across the 256-fold dose range; it is 1 without any effect and falls as sensitivity rises. For part of these data: Where the top dose is marked as inferred, it was derived from the fitted curves, not read from the paper. For part of these data: Where an entry number is given, a second screen of the drug exists; the two often differ.
